The data set relates to ATP. Kind of data set: switch fluorescence ratio, 500 uM ATP over buffer (Cy3 cluster intensity, sum of 5 cycles each) (fold (ratio)); higher = stronger signal-on switching upon ATP binding; sequences stand for … in TCGTCGGCAGCGTCAGATGTGTATAAGAGACAGTTTTTTTTTTTTTTTTTTTTTTTTT…TC. As to conditions: aptamer strand: ATP DNA aptamer (quencher-CACCTGGGGGAGTATTGCGGAGGAAGG + anchor), 100 nM annealed; ATP concentration: 500 uM; one replicate. In short, it runs like this:
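Five buffer/ATP imaging cycles were run on Cy3-labelled switching-strand clusters on a modified Illumina MiSeq flow-cell, with NaOH stripping and re-annealing between cycles. In each cycle, clusters annealed to 100 nM quencher-labelled ATP aptamer were imaged in selection buffer, then after 15 min with 500 uM ATP at 22 °C. Per cluster, the fluorescence ratio is summed target-cycle over summed buffer-cycle Cy3 intensity, averaged per switch-domain sequence. Only clusters within 100-1000 RFU were kept.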

Values marked as one replicate rest on one cluster of the flow cell; about a third of the high ones do not repeat.
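Note: ATP exposure 15 min at 22 °C before imaging.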

Consider CCACCAATAG, for which the switch fluorescence ratio was found to be 5.29.

As for GGACATACTT, the switch fluorescence ratio worked out at 1.42.

TTATGCGGGT: the switch fluorescence ratio amounted to 1.03.

For the sequence CGAATAACG, the switch fluorescence ratio was determined as 1.06.

For the sequence AATGGGAGCT, the switch fluorescence ratio stood at 1.

For TCTGATAGCC, the switch fluorescence ratio came to 1.09.

Regarding AGGACTGGTT, the switch fluorescence ratio worked out at 0.961.

For the sequence TAAAGCGGCT, the switch fluorescence ratio is 1.06.

Take TCCTCTACGT: the switch fluorescence ratio amounted to 1.19.

On to GCCTATAGGG, for which the switch fluorescence ratio stood at 0.989.

With GGTTCGCCAC, the switch fluorescence ratio was 0.976.

Consider TCGTTCGTTA, for which the switch fluorescence ratio was 1.01.

ACACTTTCGC: the switch fluorescence ratio amounted to 1.03.

For AGTGCGCTCT, the switch fluorescence ratio was found to be 0.95.

Consider ATATTGACA, for which the switch fluorescence ratio was 1.03.

With ATACGGCACG, the switch fluorescence ratio stood at 1.04.

Take GAGAGCGGCA: the switch fluorescence ratio worked out at 1.04.

Take TGAGAATATG: the switch fluorescence ratio amounted to 0.993.

Consider ACTGCGCCCA, for which the switch fluorescence ratio was found to be 1.22.

Regarding TTTTACGAT, the switch fluorescence ratio came out at 1.11.

Turning to GGATCGAGTA, the switch fluorescence ratio stood at 0.999.

On to GATCATTTGG, for which the switch fluorescence ratio was determined as 0.983.

As to AAGGAAGGCG, the switch fluorescence ratio was 1.02.

In the case of CGTTAAGTG, the switch fluorescence ratio turned out to be 0.977.

As for GATATTGGCC, the switch fluorescence ratio turned out to be 1.

For CGAGGTTTTT, the switch fluorescence ratio worked out at 1.02.

As to CCTTGATAGT, the switch fluorescence ratio came out at 1.

TGGCCGCAAT: the switch fluorescence ratio amounted to 0.991.

As for GGAAGAACTA, the switch fluorescence ratio was 1.01.

In the case of TCGCGTGGGT, the switch fluorescence ratio was 1.01.

ATGCGGGCTG: the switch fluorescence ratio turned out to be 0.985.

Take CGAAACGGGT: the switch fluorescence ratio was 1.01.

As to AGACTTGGTG, the switch fluorescence ratio is 0.97.

On to GCTAATTGTA, for which the switch fluorescence ratio turned out to be 0.945.

Take GGGTCTGATG: the switch fluorescence ratio is 1.01.

CTGGGACTC: the switch fluorescence ratio worked out at 0.99.

As to AGGTTTGTAA, the switch fluorescence ratio came to 0.976.

As to CATCCAGATT, the switch fluorescence ratio turned out to be 1.01.

Consider GGTGGCGTTG, for which the switch fluorescence ratio worked out at 0.982.

Consider AGGGCGCAC, for which the switch fluorescence ratio was 1.02.

As to GAATTACAAT, the switch fluorescence ratio is 1.01.

As to CAGTCCGGT, the switch fluorescence ratio is 1.04.

Consider CTGATTGGCG, for which the switch fluorescence ratio amounted to 0.981.

As to CTGGTAGGCG, the switch fluorescence ratio came out at 0.934.

As to GCAGGTCAAA, the switch fluorescence ratio was 0.991.

Regarding AAATTCTGT, the switch fluorescence ratio was 0.942.

For TGTTATACTT, the switch fluorescence ratio turned out to be 1.01.

As for CCCGCATGGG, the switch fluorescence ratio stood at 1.09.

As to GGGTCGACC, the switch fluorescence ratio is 0.988.

Regarding CAAACCTTAG, the switch fluorescence ratio stood at 1.22.

For the sequence GTATTAGTTC, the switch fluorescence ratio amounted to 0.958.

Take TACCTACGTG: the switch fluorescence ratio was determined as 1.45.

In the case of GCGAATGTGT, the switch fluorescence ratio is 0.994.

Turning to ATGGTTCTGG, the switch fluorescence ratio stood at 0.972.

In the case of GTTCTCACGT, the switch fluorescence ratio was determined as 1.

In the case of GACTATGTAC, the switch fluorescence ratio came to 1.1.

For GGGCGCAAAG, the switch fluorescence ratio was 1.05.

On to AGCATCACGA, for which the switch fluorescence ratio was determined as 1.13.

For the sequence GTTTGGGGAA, the switch fluorescence ratio was found to be 0.972.

On to GACAGTCAG, for which the switch fluorescence ratio came to 1.01.

With TGTCTGAATG, the switch fluorescence ratio was 1.03.

As to CGCTTTCTAT, the switch fluorescence ratio was found to be 1.

Take GCACTATTCT: the switch fluorescence ratio was found to be 1.05.

As to TTTACTCACG, the switch fluorescence ratio was found to be 1.39.

For TCTTATGGAG, the switch fluorescence ratio worked out at 0.979.

For the sequence GCAGACGACT, the switch fluorescence ratio was 1.06.

On to CGGGGAACTA, for which the switch fluorescence ratio was 1.07.

On to CGAATCCGGA, for which the switch fluorescence ratio was determined as 1.03.

With CGCTACAGAG, the switch fluorescence ratio was 1.08.

With AATGACGGGT, the switch fluorescence ratio was found to be 0.996.

With TGACATGTAC, the switch fluorescence ratio was found to be 1.24.

TGCGTATAAT: the switch fluorescence ratio turned out to be 0.921.

As for GTGGCACAGC, the switch fluorescence ratio was 1.01.

For ATAATGTTCT, the switch fluorescence ratio was 0.994.

As for TTTAACTGTC, the switch fluorescence ratio is 1.68.

ATCGCTGCAG: the switch fluorescence ratio turned out to be 1.03.

Turning to GCCAACGACT, the switch fluorescence ratio came to 1.05.

Regarding CGACCCAGAA, the switch fluorescence ratio is 1.04.

The values above are taken from the supplement of paper PMC10126150.
